Laboratory results from the supplement of paper PMC7826260.
Some of the results follow. Viral Rep nickase domains cut single-stranded DNA in vitro (3 µM enzyme, 1 h, 37 °C); shown is the middle of each 90-letter strand. Uncut reads are compared with the no-enzyme pool on a log2 scale; uncut sequences lie near 0, cut ones below; no hit call is given. Because reads are shares of a total, they shift together; values above 0 arise when much of the pool is cut.

Assays:
Assay in all cases: uncleaved DNA left, log2 of reads against the no-enzyme library (log2 ratio); higher = less cleavage (more negative = more Rep cleavage of the k-mer); sequences stand for … in CTCGTCCG…ACCGGAGA
[1] = system: T1, Rep nickase domain of Muscovy duck circovirus
T1 sequence (protein, residues 1-111, tag omitted): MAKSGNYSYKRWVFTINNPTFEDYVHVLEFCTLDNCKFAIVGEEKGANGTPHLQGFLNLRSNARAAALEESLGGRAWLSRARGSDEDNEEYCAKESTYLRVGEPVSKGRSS
Method: (§1)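 A pool of 90-nt single-stranded DNAs with seven random bases just before the constant AC of the nick site (name = the seven bases) was cut by 3 µM recombinant His6-SUMO-tagged Rep nickase domain (300 nM DNA, 50 mM HEPES pH 8.0, 50 mM NaCl, 1 mM MnCl2, 1 h, 37 °C, three replicates). Uncut DNA was amplified and sequenced.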

[2] = system: T2, Rep nickase domain of banana bunchy top virus
T2 sequence (protein, residues 1-94, tag omitted): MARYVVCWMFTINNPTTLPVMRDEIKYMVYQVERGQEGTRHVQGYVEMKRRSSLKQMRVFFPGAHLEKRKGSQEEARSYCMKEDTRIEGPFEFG
Method: as §1

[3] = system: T3, Rep nickase domain of cabbage leaf curl virus
T3 sequence (protein, residues 1-116, tag omitted): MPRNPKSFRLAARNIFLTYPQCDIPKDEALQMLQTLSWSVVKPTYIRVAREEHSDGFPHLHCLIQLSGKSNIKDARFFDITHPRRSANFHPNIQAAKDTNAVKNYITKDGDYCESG
Method: as §1

[4] = system: T4, Rep nickase domain of chickpea chlorotic dwarf virus
T4 sequence (protein, residues 1-124, tag omitted): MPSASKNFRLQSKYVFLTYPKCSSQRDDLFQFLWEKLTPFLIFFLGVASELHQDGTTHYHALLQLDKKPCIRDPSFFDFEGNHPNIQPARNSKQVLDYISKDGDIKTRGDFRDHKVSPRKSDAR
Method: as §1

[5] = system: T5, Rep nickase domain of faba bean necrotic yellows virus
T5 sequence (protein, residues 1-98, tag omitted): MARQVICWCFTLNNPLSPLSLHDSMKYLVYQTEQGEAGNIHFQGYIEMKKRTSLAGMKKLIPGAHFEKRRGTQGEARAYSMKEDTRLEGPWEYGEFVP
Method: as §1

[6] = system: T6, Rep nickase domain of maize striate mosaic virus
T6 sequence (protein, residues 1-117, tag omitted): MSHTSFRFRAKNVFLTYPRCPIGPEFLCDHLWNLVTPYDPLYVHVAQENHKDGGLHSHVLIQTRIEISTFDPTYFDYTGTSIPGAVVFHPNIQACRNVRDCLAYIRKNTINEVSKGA
Method: as §1

[7] = system: T7, Rep nickase domain of porcine circovirus 2
T7 sequence (protein, residues 2-116, tag omitted): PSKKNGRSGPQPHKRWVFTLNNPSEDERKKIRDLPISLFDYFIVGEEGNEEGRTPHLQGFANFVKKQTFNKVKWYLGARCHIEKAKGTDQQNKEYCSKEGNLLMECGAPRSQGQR
Method: as §1

[8] = system: T8, Rep nickase domain of tomato golden mosaic virus
T8 sequence (protein, residues 1-124, tag omitted): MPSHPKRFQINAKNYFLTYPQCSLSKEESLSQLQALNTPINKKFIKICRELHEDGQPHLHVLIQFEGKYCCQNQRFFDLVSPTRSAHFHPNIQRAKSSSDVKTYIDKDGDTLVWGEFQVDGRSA
Method: as §1

[9] = system: T9, Rep nickase domain of tomato yellow leaf curl virus
T9 sequence (protein, residues 1-136, tag omitted): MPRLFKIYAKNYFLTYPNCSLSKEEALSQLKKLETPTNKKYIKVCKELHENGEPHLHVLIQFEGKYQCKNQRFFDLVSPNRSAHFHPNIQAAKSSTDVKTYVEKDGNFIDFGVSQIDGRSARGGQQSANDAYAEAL
Method: as §1

[10] = system: T10, Rep nickase domain of wheat dwarf virus
T10 sequence (protein, residues 1-137, tag omitted): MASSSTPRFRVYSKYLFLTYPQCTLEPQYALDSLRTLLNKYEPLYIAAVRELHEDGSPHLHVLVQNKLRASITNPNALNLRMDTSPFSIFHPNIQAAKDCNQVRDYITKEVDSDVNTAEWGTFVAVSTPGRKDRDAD
Method: as §1

With GCCGGCC the “uncleaved DNA left (log2)” value [1] was 0.134, the “uncleaved DNA left (log2)” value [2] was 0.0955 and the “uncleaved DNA left (log2)” value [3] was 0.234. For the same sequence, the “uncleaved DNA left (log2)” value [4] was 0.651, the “uncleaved DNA left (log2)” value [5] was -0.0496 and the “uncleaved DNA left (log2)” value [6] was 0.262. The “uncleaved DNA left (log2)” value [7] was 0.214, the “uncleaved DNA left (log2)” value [8] was 0.114 and the “uncleaved DNA left (log2)” value [9] was 0.0284. For the same sequence, the “uncleaved DNA left (log2)” value [10] was 0.0578.
GCGGCCC was tested, and the “uncleaved DNA left (log2)” value [1] was 0.0565, the “uncleaved DNA left (log2)” value [2] was -0.0252 and the “uncleaved DNA left (log2)” value [3] was 0.36. The “uncleaved DNA left (log2)” value [4] was 0.849, the “uncleaved DNA left (log2)” value [5] was -0.0167 and the “uncleaved DNA left (log2)” value [6] was 1.12. The “uncleaved DNA left (log2)” value [7] was 0.106, the “uncleaved DNA left (log2)” value [8] was -0.0271 and the “uncleaved DNA left (log2)” value [9] was 0.0287. The “uncleaved DNA left (log2)” value [10] was 0.0996.
With AGCTAAG the “uncleaved DNA left (log2)” value [1] was 0.0547, the “uncleaved DNA left (log2)” value [2] was 0.015 and the “uncleaved DNA left (log2)” value [3] was -0.652. For the same sequence, the “uncleaved DNA left (log2)” value [4] was -0.152, the “uncleaved DNA left (log2)” value [5] was -0.0192 and the “uncleaved DNA left (log2)” value [6] was -0.988. The “uncleaved DNA left (log2)” value [7] was 0.175, the “uncleaved DNA left (log2)” value [8] was 0.00281 and the “uncleaved DNA left (log2)” value [9] was 0.0688. The “uncleaved DNA left (log2)” value [10] was 0.0148.
GATCTTC was tested, and the “uncleaved DNA left (log2)” value [1] was 0.0394, the “uncleaved DNA left (log2)” value [2] was 0.086 and the “uncleaved DNA left (log2)” value [3] was 0.268. For the same sequence, the “uncleaved DNA left (log2)” value [4] was 0.718, the “uncleaved DNA left (log2)” value [5] was 0.107 and the “uncleaved DNA left (log2)” value [6] was 0.848. For the same sequence, the “uncleaved DNA left (log2)” value [7] was -0.0342, the “uncleaved DNA left (log2)” value [8] was 0.0626 and the “uncleaved DNA left (log2)” value [9] was 0.071. For the same sequence, the “uncleaved DNA left (log2)” value [10] was 0.0962.
For GAAGTGC, the “uncleaved DNA left (log2)” value [1] was 0.0833, the “uncleaved DNA left (log2)” value [2] was 0.0469 and the “uncleaved DNA left (log2)” value [3] was -0.461. The “uncleaved DNA left (log2)” value [4] was -0.415, the “uncleaved DNA left (log2)” value [5] was 0.0737 and the “uncleaved DNA left (log2)” value [6] was -0.83. For the same sequence, the “uncleaved DNA left (log2)” value [7] was 0.0645, the “uncleaved DNA left (log2)” value [8] was 0.0463 and the “uncleaved DNA left (log2)” value [9] was 0.0991. For the same sequence, the “uncleaved DNA left (log2)” value [10] was 0.00724.
For GCTATAA, the “uncleaved DNA left (log2)” value [1] was -0.089, the “uncleaved DNA left (log2)” value [2] was -0.0393 and the “uncleaved DNA left (log2)” value [3] was 0.0498. For the same sequence, the “uncleaved DNA left (log2)” value [4] was 0.424, the “uncleaved DNA left (log2)” value [5] was 0.00995 and the “uncleaved DNA left (log2)” value [6] was 0.353. For the same sequence, the “uncleaved DNA left (log2)” value [7] was 0.0378, the “uncleaved DNA left (log2)” value [8] was 0.0363 and the “uncleaved DNA left (log2)” value [9] was -0.0111. For the same sequence, the “uncleaved DNA left (log2)” value [10] was 0.119.
For CACGCTC, the “uncleaved DNA left (log2)” value [1] was -0.071, the “uncleaved DNA left (log2)” value [2] was -0.112 and the “uncleaved DNA left (log2)” value [3] was -0.183. For the same sequence, the “uncleaved DNA left (log2)” value [4] was -0.896, the “uncleaved DNA left (log2)” value [5] was -0.0485 and the “uncleaved DNA left (log2)” value [6] was -0.685. The “uncleaved DNA left (log2)” value [7] was -0.0775, the “uncleaved DNA left (log2)” value [8] was -0.0392 and the “uncleaved DNA left (log2)” value [9] was -0.146. For the same sequence, the “uncleaved DNA left (log2)” value [10] was -0.116.
With TTCGAAT the “uncleaved DNA left (log2)” value [1] was 0.013, the “uncleaved DNA left (log2)” value [2] was -0.0197 and the “uncleaved DNA left (log2)” value [3] was -0.0269. For the same sequence, the “uncleaved DNA left (log2)” value [4] was -0.264, the “uncleaved DNA left (log2)” value [5] was 0.143 and the “uncleaved DNA left (log2)” value [6] was -0.247. The “uncleaved DNA left (log2)” value [7] was -0.225, the “uncleaved DNA left (log2)” value [8] was -0.0566 and the “uncleaved DNA left (log2)” value [9] was 0.0346. The “uncleaved DNA left (log2)” value [10] was -0.0183.
AGCGTAA was tested, and the “uncleaved DNA left (log2)” value [1] was -0.0228, the “uncleaved DNA left (log2)” value [2] was 0.0925 and the “uncleaved DNA left (log2)” value [3] was -0.146. For the same sequence, the “uncleaved DNA left (log2)” value [4] was 0.266, the “uncleaved DNA left (log2)” value [5] was 0.0058 and the “uncleaved DNA left (log2)” value [6] was 0.777. The “uncleaved DNA left (log2)” value [7] was -0.329, the “uncleaved DNA left (log2)” value [8] was 0.0436 and the “uncleaved DNA left (log2)” value [9] was 0.0527. For the same sequence, the “uncleaved DNA left (log2)” value [10] was 0.0244.
With ATCCGCA the “uncleaved DNA left (log2)” value [1] was -0.0663, the “uncleaved DNA left (log2)” value [2] was -0.144 and the “uncleaved DNA left (log2)” value [3] was -0.388. For the same sequence, the “uncleaved DNA left (log2)” value [4] was -0.936, the “uncleaved DNA left (log2)” value [5] was 0.0289 and the “uncleaved DNA left (log2)” value [6] was -1.23. For the same sequence, the “uncleaved DNA left (log2)” value [7] was -0.0327, the “uncleaved DNA left (log2)” value [8] was -0.186 and the “uncleaved DNA left (log2)” value [9] was -0.127. For the same sequence, the “uncleaved DNA left (log2)” value [10] was -0.187.
In the case of GAGTCCG, the “uncleaved DNA left (log2)” value [1] is reported as 0.122, the “uncleaved DNA left (log2)” value [2] is reported as 0.00784 and the “uncleaved DNA left (log2)” value [3] is reported as -0.609. The “uncleaved DNA left (log2)” value [4] was -0.512, the “uncleaved DNA left (log2)” value [5] was 0.0433 and the “uncleaved DNA left (log2)” value [6] was -0.782. The “uncleaved DNA left (log2)” value [7] was -0.41, the “uncleaved DNA left (log2)” value [8] was -0.0497 and the “uncleaved DNA left (log2)” value [9] was 0.0242. For the same sequence, the “uncleaved DNA left (log2)” value [10] was -0.0496.
In the case of GATGGGA, the “uncleaved DNA left (log2)” value [1] is reported as 0.0118, the “uncleaved DNA left (log2)” value [2] is reported as 0.0861 and the “uncleaved DNA left (log2)” value [3] is reported as 0.298. For the same sequence, the “uncleaved DNA left (log2)” value [4] was 0.78, the “uncleaved DNA left (log2)” value [5] was 0.0565 and the “uncleaved DNA left (log2)” value [6] was 0.785. For the same sequence, the “uncleaved DNA left (log2)” value [7] was 0.102, the “uncleaved DNA left (log2)” value [8] was 0.046 and the “uncleaved DNA left (log2)” value [9] was 0.0557. For the same sequence, the “uncleaved DNA left (log2)” value [10] was 0.0253.
With CTTACTA the “uncleaved DNA left (log2)” value [1] was -0.274, the “uncleaved DNA left (log2)” value [2] was -0.0677 and the “uncleaved DNA left (log2)” value [3] was -0.338. The “uncleaved DNA left (log2)” value [4] was -2.69, the “uncleaved DNA left (log2)” value [5] was -0.0461 and the “uncleaved DNA left (log2)” value [6] was -0.797. The “uncleaved DNA left (log2)” value [7] was -0.246, the “uncleaved DNA left (log2)” value [8] was -0.173 and the “uncleaved DNA left (log2)” value [9] was 0.0436. The “uncleaved DNA left (log2)” value [10] was -0.137.
For AAATTAA, the “uncleaved DNA left (log2)” value [1] was -0.0822, the “uncleaved DNA left (log2)” value [2] was 0.00842 and the “uncleaved DNA left (log2)” value [3] was -0.287. For the same sequence, the “uncleaved DNA left (log2)” value [4] was -0.803, the “uncleaved DNA left (log2)” value [5] was 0.0413 and the “uncleaved DNA left (log2)” value [6] was -0.823. For the same sequence, the “uncleaved DNA left (log2)” value [7] was -0.293, the “uncleaved DNA left (log2)” value [8] was 0.0138 and the “uncleaved DNA left (log2)” value [9] was 0.00553. For the same sequence, the “uncleaved DNA left (log2)” value [10] was -0.0591.
For ATGAATG, the “uncleaved DNA left (log2)” value [1] was 0.0257, the “uncleaved DNA left (log2)” value [2] was 0.0776 and the “uncleaved DNA left (log2)” value [3] was -0.0231. The “uncleaved DNA left (log2)” value [4] was 0.442, the “uncleaved DNA left (log2)” value [5] was 0.0331 and the “uncleaved DNA left (log2)” value [6] was -0.0543. For the same sequence, the “uncleaved DNA left (log2)” value [7] was 0.00403, the “uncleaved DNA left (log2)” value [8] was 0.0539 and the “uncleaved DNA left (log2)” value [9] was 0.00577. The “uncleaved DNA left (log2)” value [10] was 0.0676.
CAACAGC was tested, and the “uncleaved DNA left (log2)” value [1] was 0.122, the “uncleaved DNA left (log2)” value [2] was 0.113 and the “uncleaved DNA left (log2)” value [3] was -0.255. The “uncleaved DNA left (log2)” value [4] was -0.9, the “uncleaved DNA left (log2)” value [5] was 0.159 and the “uncleaved DNA left (log2)” value [6] was -0.828. The “uncleaved DNA left (log2)” value [7] was 0.307, the “uncleaved DNA left (log2)” value [8] was 0.0539 and the “uncleaved DNA left (log2)” value [9] was 0.0714. For the same sequence, the “uncleaved DNA left (log2)” value [10] was 0.155.
